Test results: publication PMC3646547 (Nature communications, 2012)

What was measured:
FANCM^661-800 = molecular target: T1, FANCM^661-800 (human, UniProt Q8IYD8 661-800); assay: crystal structure
T1 sequence (looked up): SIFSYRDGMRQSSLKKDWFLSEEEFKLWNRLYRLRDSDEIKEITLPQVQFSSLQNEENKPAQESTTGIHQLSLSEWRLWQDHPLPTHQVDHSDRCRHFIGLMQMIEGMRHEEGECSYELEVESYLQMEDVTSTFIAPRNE

crystal structure = molecular target: the molecule itself; assay: crystal structure

B1: MHF1^[…] (SeMet derivative) (domain or fragment)
chain: not shown
modifications: selenomethionine (SeMet-derivative protein)
B1: binds (FANCM^661-800); binds (crystal structure).
